Numbering of substitutions follows the chain as printed. Results are given in words; binding and its absence hold for the method and conditions named. For some assays here: Binding seen in cells or lysates may run through a third protein. Some results given as binding are weak or reduced against the parent protein; the word gives no strength. Sequences can lack the tags named with a protein. Blank lines part the entries; values can stand above or below the substance they belong to.
How the values were obtained:
[1] = biological target: T1, Nab2 (nuclear abundant poly(A) RNA-binding protein 2), full-length, DBD fusion for two-hybrid (S. cerevisiae) (UniProt P32505); test: two-hybrid; EGY48 reporter strain, Nab2 variants as DBD fusions (pEG202), CT-Mlp1 or Gfd1 as AD fusions (pJG4-5), lacZ reporter (blue colour), 30 °C
T1 sequence: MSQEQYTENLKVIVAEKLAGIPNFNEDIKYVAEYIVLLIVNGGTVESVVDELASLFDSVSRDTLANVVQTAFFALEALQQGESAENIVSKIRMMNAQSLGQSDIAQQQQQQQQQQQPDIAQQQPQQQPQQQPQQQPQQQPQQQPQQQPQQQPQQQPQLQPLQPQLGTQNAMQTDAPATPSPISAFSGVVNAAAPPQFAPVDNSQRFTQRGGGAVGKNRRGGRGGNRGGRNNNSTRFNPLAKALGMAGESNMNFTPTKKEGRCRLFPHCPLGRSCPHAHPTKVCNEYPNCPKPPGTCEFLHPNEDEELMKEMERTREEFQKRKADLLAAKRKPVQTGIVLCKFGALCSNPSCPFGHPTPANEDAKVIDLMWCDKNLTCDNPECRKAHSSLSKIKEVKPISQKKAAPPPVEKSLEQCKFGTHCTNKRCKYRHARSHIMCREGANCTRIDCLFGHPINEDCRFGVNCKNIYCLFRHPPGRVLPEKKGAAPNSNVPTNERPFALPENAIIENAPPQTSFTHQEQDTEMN

By UniProt entry, the sequences of proteins in these tests, tags left out. Where a name states a change or a piece, a line headed by the entry shows the natural chain unless it says otherwise.
UniProt Q02455: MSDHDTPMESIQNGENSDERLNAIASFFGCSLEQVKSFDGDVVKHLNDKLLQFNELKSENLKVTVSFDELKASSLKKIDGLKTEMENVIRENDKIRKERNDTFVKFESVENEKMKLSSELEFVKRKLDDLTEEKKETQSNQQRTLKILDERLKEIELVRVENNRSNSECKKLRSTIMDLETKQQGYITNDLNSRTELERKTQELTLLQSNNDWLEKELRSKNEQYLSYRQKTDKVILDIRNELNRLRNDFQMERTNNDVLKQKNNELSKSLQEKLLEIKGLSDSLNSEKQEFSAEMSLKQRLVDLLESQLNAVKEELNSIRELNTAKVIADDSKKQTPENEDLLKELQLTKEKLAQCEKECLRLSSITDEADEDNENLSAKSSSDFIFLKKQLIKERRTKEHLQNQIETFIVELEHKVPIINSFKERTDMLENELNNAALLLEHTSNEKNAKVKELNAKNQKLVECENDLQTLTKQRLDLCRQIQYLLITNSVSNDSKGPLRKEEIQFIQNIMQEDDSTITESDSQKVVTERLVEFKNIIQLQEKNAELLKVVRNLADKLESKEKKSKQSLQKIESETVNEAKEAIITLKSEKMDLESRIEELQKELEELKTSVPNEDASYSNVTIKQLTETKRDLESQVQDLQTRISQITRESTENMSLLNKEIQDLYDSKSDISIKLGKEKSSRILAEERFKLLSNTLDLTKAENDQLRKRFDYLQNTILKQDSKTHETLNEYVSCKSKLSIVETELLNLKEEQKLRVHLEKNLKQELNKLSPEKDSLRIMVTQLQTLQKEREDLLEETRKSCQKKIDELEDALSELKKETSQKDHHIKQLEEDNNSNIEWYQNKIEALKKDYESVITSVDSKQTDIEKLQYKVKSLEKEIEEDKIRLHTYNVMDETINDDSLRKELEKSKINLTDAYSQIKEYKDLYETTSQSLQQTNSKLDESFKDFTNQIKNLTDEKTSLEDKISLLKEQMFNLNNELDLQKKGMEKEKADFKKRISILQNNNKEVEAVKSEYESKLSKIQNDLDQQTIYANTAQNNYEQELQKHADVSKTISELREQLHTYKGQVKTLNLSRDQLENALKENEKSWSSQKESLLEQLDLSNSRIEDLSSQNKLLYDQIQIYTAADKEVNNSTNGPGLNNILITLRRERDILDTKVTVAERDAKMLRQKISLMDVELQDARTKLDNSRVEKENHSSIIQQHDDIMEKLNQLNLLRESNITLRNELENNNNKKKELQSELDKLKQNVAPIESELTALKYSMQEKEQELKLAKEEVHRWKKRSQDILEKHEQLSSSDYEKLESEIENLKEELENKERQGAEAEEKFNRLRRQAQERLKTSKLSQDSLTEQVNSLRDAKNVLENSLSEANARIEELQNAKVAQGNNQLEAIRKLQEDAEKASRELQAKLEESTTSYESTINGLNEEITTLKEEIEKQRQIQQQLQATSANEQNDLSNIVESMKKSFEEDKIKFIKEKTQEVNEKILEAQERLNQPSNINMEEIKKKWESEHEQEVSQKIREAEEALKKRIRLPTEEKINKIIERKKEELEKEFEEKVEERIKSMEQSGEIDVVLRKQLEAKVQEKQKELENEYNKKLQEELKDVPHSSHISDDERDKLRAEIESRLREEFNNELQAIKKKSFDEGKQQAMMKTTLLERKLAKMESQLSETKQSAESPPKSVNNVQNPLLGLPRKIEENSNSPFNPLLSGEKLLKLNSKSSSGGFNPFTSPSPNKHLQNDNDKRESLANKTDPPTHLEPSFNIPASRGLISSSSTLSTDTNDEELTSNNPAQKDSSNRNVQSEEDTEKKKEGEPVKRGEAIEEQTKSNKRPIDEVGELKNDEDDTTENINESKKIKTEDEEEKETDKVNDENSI

[2] = biological target: T2, GST-Nab2-N (GST fusion to the N-terminal domain of Nab2, residues 1–97) (S. cerevisiae) (UniProt P32505); test: pull-down; Sepharose-bound GST fusion protein (6 μg) incubated with purified His-CT-Mlp1 (2 μg), washed three times with PBS, SDS-PAGE and Coomassie Blue staining; both purified
T2 sequence: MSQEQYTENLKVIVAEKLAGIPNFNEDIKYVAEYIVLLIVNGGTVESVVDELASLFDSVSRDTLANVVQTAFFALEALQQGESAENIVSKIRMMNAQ

[3] = biological target: T3, GST-Nab2-N F72D (aa 1–97) (S. cerevisiae) (UniProt P32505); test: as above
T3 sequence: T2 sequence with F72D

[4] = biological target: T4, GST-Nab2-N F73W (S. cerevisiae) (UniProt P32505); test: as above
T4 sequence: T2 sequence with F73W

[5] = biological target: T2, GST-Nab2-N (GST fusion to the N-terminal domain of Nab2, residues 1–97) (S. cerevisiae); test: pull-down; purified GST fusion protein or GST added to yeast lysate (wild type, mlp1Δ or MLP1-TAP cells), recovered on glutathione beads; Coomassie Blue staining or immunoblotting with PAP antibody; only the target purified
[6] = biological target: T5, GST-Nab2-N F73D (aa 1–97) (S. cerevisiae) (UniProt P32505); test: as above
T5 sequence: T2 sequence with F73D

[7] = biological target: T3, GST-Nab2-N F72D (aa 1–97) (S. cerevisiae); test: as above

binding [1]: binds
Substance: CT-Mlp1 (C-terminal globular domain of Mlp1, residues 1490–1875), AD fusion for two-hybrid (from UniProt Q02455 1490-1875) (domain or fragment)

binding [2]: binds weakly
binding [3]: binds weakly
binding [4]: binds weakly
Substance: His-CT-Mlp1 (Mlp1 C-terminal domain fragment, amino acids 1490–1779) (from UniProt Q02455 1490-1779) (domain or fragment)

binding [5]: binds
Substance: Mlp1 (myosin-like protein 1), full-length, endogenous in wild-type yeast lysate (from UniProt Q02455 1-1875)

binding [6]: no binding
binding [5]: binds
binding [7]: binds
Substance: TAP-tagged Mlp1 (Mlp1-TAP), full-length, in yeast lysate (from UniProt Q02455 1-1875)

Source: paper PMC2728203
